# According to PubChem BioAssay AID463173 (ICCB-Longwood Screening Facility, Harvard Medical School, 2010):
# Out of some 52,000 compounds screened, about 4,300 (8.3%) were called active. No stated cut-off is given here; in the data, active means survival mostly below about 52% (no sharp cut-off); inactive means mostly above about 56%. Some of the results follow.
# System: DeltatarO mutant
# Assay: growth inhibition of S. aureus wild type versus tarO mutant, primary screen, teichoic acid synthesis inhibitors, RN4220, OD600 (AID 463173)
# Conditions: OD600, 18 h, stronger effect = lower value, screened at 18.75 µg/mL (by protocol)
row,Structure (SMILES),survival
1,COCc1cc(C)nc(SCC(N)=O)c1C#N,inactive: 96%
2,Cc1oc(C)c2c(=O)cc(-c3ccc4c(c3)OCO4)cc(OC(=O)c3cccc(Br)c3)c12,inactive: 112%
3,Cc1ccc(OC(=O)CSc2nnc(-c3ccco3)n2-c2ccccc2)cc1,inactive: 52%
4,Cc1cc(C)n(CCc2nc3c4ccccc4nc(N4CCN(c5ccccc5)CC4)n3n2)n1,inactive: 76%
5,CC(=O)NC1(c2ccccc2)CCN(CC(=O)Nc2c(C)n[nH]c2C)CC1,inactive: 95%
6,NC(=O)c1sc2nc3c(cc2c1N)CCCCC3,inactive: 71%
7,COc1cccc(CNC(=O)C2CCCCN2S(=O)(=O)c2ccc(F)cc2)c1 (stereo not given),inactive: 49%
8,COc1ccc(-c2noc(-c3ccc(N4CCN(c5ccccc5)CC4)c([N+](=O)[O-])c3)n2)cc1OC,inactive: 61%
9,CCOC(=O)C1(C)C=C(Nc2cccc(C(=O)O)c2)C(=O)N1c1cccc(C(=O)O)c1 (stereo not given),inactive: 78%
10,CCOC(=O)c1sc2sc(C(=O)OCC)c(CN(CC)CC)c2c1CN(CC)CC,inactive: 105%
11,CCCCc1nn2c(=O)cc(COC(=O)c3ccc(NC(=O)c4ccccc4C)cc3)nc2s1,inactive: 86%
12,Cc1ccc(CNS(=O)(=O)c2ccc3[nH]c4c(c3c2)CCCC4)cc1,inactive: 84%
13,Cc1cc(F)ccc1NS(=O)(=O)c1ccc(-n2cccn2)cc1,inactive: 88%
14,O=C1CS(=O)(=O)C2(C(=O)N(Cc3ccccc3)c3ccccc32)N1c1ccccc1 (stereo not given),inactive: 113%
15,COc1ccc(OC)c(CNC(=O)Cc2ccc(NC(=O)N3CCSc4ncccc43)cc2)c1,inactive: 72%
16,O=C(C1CCN(c2ncnc3c2nc2n3CCCCC2)CC1)N1CCN(c2cccc(Cl)c2)CC1,inactive: 64%
17,Cc1ccc(CCNC(=O)c2ccc3c(c2)nc2n3CCC(C)C2)cc1 (stereo not given),inactive: 76%
18,COc1cc2c(cc1OC)C(COc1ccccc1OC)N(C(=O)COc1ccc(Cl)cc1)CC2 (stereo not given),active: 47%
19,COc1cc2c(cc1OC)C(COc1ccc3c(C)cc(=O)oc3c1)N(C(=O)c1cccc(C)c1)CC2 (stereo not given),inactive: 61%
20,Cn1c(=O)c(=O)n(C)c2cc(S(=O)(=O)N3CCCC3C(=O)Nc3ccccc3F)ccc21 (stereo not given),inactive: 92%
21,O=C(NCCc1ccccc1)c1ccc2c(c1)N(Cc1c(F)cccc1Cl)C(=O)CS2,inactive: 54%
22,COc1ccc(NC(=O)CSc2nncn3c2cc2oc(C)cc23)cc1OC,inactive: 109%
23,Cc1ccc(N(CC(=O)Nc2cccc(F)c2)S(=O)(=O)c2cccs2)cc1,inactive: 75%

row,Structure (SMILES),survival
1,N#CC(C#N)=C(N)/C(C#N)=C\c1ccc(-c2ccccc2)o1,inactive: 80%
2,Cc1ccc(N(CC(=O)N2CCN(c3ccccc3F)CC2)S(=O)(=O)c2c(C)noc2C)cc1,inactive: 92%
3,CCOC(=O)CSc1ccc2nnc(CCNS(=O)(=O)c3ccccc3)n2n1,inactive: 63%
4,Cc1ccc(CCNC(=O)C(NS(=O)(=O)c2ccc3c(c2)oc(=O)n3C)C(C)C)cc1 (stereo not given),inactive: 88%
5,COc1cc2c(cc1OC)C(c1ccc(F)cc1)N(c1cccc(C#N)c1)C(=O)C2 (stereo not given),inactive: 66%
6,O=C(NC1CCCCC1)C(c1cccs1)N(Cc1cccs1)C(=O)c1cccs1 (stereo not given),inactive: 88%
7,O=C(Nc1cccc(C(=O)OCc2cc(=O)n3nc(C4CC4)sc3n2)c1)c1cccc(F)c1,inactive: 88%
8,COC(=O)c1ccccc1NC(=O)c1ncoc1-c1ccco1,inactive: 62%
9,CCn1c(C(=O)NCc2ccccc2C)cc2oc3ccccc3c21,active: 14%
10,OC1CCN(c2cc(-c3ccccc3)nc3cc(-c4cccc(Cl)c4)nn23)CC1,inactive: 95%
11,Cc1ccccc1OCCSc1nc2ccc(NC(=O)c3ccccc3)cc2s1,inactive: 57%
12,Cc1nc(-c2cccc(NC(=O)Nc3ccc([N+](=O)[O-])cc3)c2)no1,inactive: 108%
13,CNC(=O)C1CCC(Cn2c(=O)c3sccc3n(Cc3ccc(F)cc3)c2=O)CC1 (stereo not given),inactive: 79%
14,CCc1ccc(NC(=O)CSc2nccn2-c2ccc(OC)cc2)cc1,inactive: 107%
15,CC1(C(=O)Nc2cccc(Br)c2)Cc2ccccc2C(=O)O1 (stereo not given),inactive: 84%
16,CC(=O)N1CCCc2cc(S(=O)(=O)N3CCC(C(=O)NC4CCC(C)CC4)CC3)ccc21 (stereo not given),inactive: 66%
17,CCc1ccc(N2C(=O)C3C4CCCC4=C4CCCC4C3C2=O)cc1 (stereo not given),inactive: 76%
18,Cc1ccc2nc(N3CCN(Cc4nnnn4C4CCCC4)CC3)c(C#N)cc2c1,inactive: 72%
19,COCCCNC(=O)CCC(=O)N1Cc2cccc(OC)c2Oc2ncccc21,inactive: 87%
20,CCCN1C(=O)c2[nH]nc(-c3ccccc3O)c2C1c1ccc(OCc2ccccc2)c(OC)c1 (stereo not given),active: 44%
21,COc1cccc2c1cc1c(=O)n(CC(=O)NC3CCCCC3)nc(C)n12,inactive: 96%
22,COc1cc(C(=O)N2CCN(c3ccc(Nc4ccc(C)cc4)nn3)CC2)cc(OC)c1OC,inactive: 78%
